Reference: the supplement of paper PMC11880418
Counter-ions that a name gives are not always drawn. Some of the results follow. The data scatter; read single values as rough.

system: MKN45; test: ALDHbr (CSC) cell proportion score relative to DMSO vehicle (ratio to DMSO); breast (SUM159) / gastric (MKN45) / pancreatic (PANC1) / colon cancer lines; ALDHbr cells have high ALDH activity and are rich in cancer stem cells (CSC); higher = more CSC (ALDHbr) cells remaining; conditions: 10 µM; 72 h
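Note: High-content imaging of ALDEFLUOR-stained cells with Hoechst-labelled nuclei in 384-well plates, triplicate wells, scored as Z-score against 0.1% DMSO vehicle, negative meaning fewer ALDHbr cells.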

Row | SMILES | ALDHbr
1 | CN(C)CCOc1ccc(/C(=C(/CCCl)c2ccccc2)c2ccccc2)cc1 [Toremifene] | 0.654
2 | CC=CC1=C(C(=O)O)N2C(=O)[C@@H](NC(=O)[C@H](N)c3ccc(O)cc3)[C@H]2SC1 [Cefprozil] | 1.01
3 | CNCC(O)c1ccc(O)c(O)c1 (stereo unspecified) [Racepinephrine hydrochloride] | 1.27
4 | CN1CCCN(C(c2ccccc2)c2ccc(Cl)cc2)CC1 (stereo unspecified) [Homochlorcyclizine dihydrochloride] | 1.11
5 | CCN1CCN(c2cc3c(cc2F)c(=O)c(C(=O)O)cn3C2CC2)CC1 [Enrofloxacin] | 1.28
6 | CS(=O)(=O)c1ccc(C2=C(c3ccccc3)C(=O)OC2)cc1 [Rofecoxib] | 1.08
7 | CC(=O)Oc1ccc(C(c2ccc(OC(C)=O)cc2)c2ccccn2)cc1 [Bisacodyl] | 1.04
8 | CCOC(=O)C1=C(C)NC(C)=C(C(=O)OC)C1c1cccc(Cl)c1Cl (stereo unspecified) [Felodipine] | 1.25
9 | N=C(N)NS(=O)(=O)c1ccc(N)cc1 [Sulfaguanidine] | 0.978
10 | CN(C)CC/C=C1\c2ccccc2CSc2ccccc21 [Dosulepin hydrochloride] | 0.908
11 | CCCNC(C)C(=O)Nc1c(C)csc1C(=O)OC (stereo unspecified) [Articaine hydrochloride] | 1.13
